Experimental data published in paper PMC4336329 (PLoS ONE, 2015).
Screen size: about 310,000 compounds; about 2,200 (0.71%) showed an effect of 50% or more. The effect is printed as a negative number. Some of the results follow.

What follows are compounds tested against human ether-à-go-go-related gene (hERG) potassium channel (human, UniProt Q12809) (assay: primary screen, population patch clamp on CHO cells stably expressing hERG).
Chain of human ether-à-go-go-related gene (hERG) potassium channel (Q12809 whole entry, looked up): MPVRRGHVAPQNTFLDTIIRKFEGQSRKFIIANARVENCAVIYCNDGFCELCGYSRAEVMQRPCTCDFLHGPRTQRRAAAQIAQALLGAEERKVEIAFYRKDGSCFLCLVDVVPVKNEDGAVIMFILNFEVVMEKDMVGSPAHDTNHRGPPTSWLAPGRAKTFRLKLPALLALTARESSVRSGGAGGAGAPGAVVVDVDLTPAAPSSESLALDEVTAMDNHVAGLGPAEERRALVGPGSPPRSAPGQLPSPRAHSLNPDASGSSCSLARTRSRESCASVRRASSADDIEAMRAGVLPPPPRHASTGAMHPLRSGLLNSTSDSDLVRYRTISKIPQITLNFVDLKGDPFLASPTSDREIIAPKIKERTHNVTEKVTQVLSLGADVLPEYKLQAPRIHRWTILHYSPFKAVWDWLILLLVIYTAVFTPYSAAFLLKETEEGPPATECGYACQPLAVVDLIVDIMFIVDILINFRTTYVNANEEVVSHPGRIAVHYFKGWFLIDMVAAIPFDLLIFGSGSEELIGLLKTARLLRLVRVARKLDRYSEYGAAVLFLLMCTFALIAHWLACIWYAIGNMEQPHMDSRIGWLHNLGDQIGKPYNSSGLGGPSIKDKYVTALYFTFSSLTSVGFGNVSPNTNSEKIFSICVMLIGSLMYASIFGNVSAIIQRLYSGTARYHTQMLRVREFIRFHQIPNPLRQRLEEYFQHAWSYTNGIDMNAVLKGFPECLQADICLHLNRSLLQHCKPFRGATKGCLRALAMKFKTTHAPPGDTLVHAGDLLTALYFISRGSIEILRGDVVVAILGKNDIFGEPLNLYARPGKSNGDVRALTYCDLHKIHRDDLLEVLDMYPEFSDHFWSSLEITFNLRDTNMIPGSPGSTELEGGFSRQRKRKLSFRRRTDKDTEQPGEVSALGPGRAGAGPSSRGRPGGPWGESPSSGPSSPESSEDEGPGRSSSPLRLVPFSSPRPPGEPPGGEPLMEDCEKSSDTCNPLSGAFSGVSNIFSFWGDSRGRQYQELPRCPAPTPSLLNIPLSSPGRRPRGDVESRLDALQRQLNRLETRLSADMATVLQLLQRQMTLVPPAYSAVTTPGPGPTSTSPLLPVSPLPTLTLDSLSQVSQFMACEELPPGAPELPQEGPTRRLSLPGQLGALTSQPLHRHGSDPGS

| SMILES | hERG current change (%, negative = inhibition) at 1uM |
| --- | --- |
| C#CCNC(=O)C1=C[C@H](c2cn(C(C)=O)c3ccccc23)C[C@H](OCc2ccc(CO)cc2)O1 | -3.97% |
| Cc1c(C(=O)OCC(=O)N(C)c2ccccc2)oc2ccccc12 | 3.25% |
| CN(C(=O)COC(=O)CNC(=O)c1sc2ccccc2c1Cl)c1ccccc1 | 8.54% |
| COCCNC(=O)C(=O)N/N=C(\C)CC(=O)Nc1cccnc1 | 11% |
| CC/C(=N\N=C(/CC)c1ccccc1N)c1ccccc1N | 5.48% |
| O=C(CSc1nc2ccccc2c(=O)[nH]1)Nc1ccccc1C(F)(F)F | 6.47% |
| Cc1cc(C(=O)Nc2ccccc2)oc1C | 16.1% |
| COc1ccc(-c2cc(C(F)(F)F)nc(SCC(=O)Nc3sc4c(c3C#N)CCC4)n2)cc1 | 10.4% |
| O=C1CCCN1c1ccc(S(=O)(=O)Nc2cccnc2)cc1 | 7.05% |
| CC1CCN(S(=O)(=O)N2CCC(C(=O)N3CCC(N(C)CC4CCCO4)CC3)CC2)CC1 (centres unmarked) | 2.62% |
| CCOc1ccc(CCNC(=O)COC(=O)/C=C/c2cccc(OC)c2)cc1OCC | 13.4% |
| CCOC(=O)C[C@H]1c2ccccc2S(=O)(=O)N1Cc1cccc(C(F)(F)F)c1 | 6.93% |
| Brc1ccc(Oc2nnnn2-c2ccccc2)cc1 | 11% |
| COC(=O)c1noc(-c2ccc(OC)cc2)n1 | -7.05% |
| Cn1c(SCc2nc3ccccc3[nH]2)nnc1-c1ccccn1 | 9.14% |
| Cc1cc(C)cc(NC(=O)c2nnn(Cc3cc(C)ccc3C)c2N)c1 | -3.27% |
| CCc1nc(SCC(=O)Nc2ccc(F)cc2F)c2c(=O)n(C)c(=O)n(C)c2n1 | 14.6% |
| CCOC(=O)CN(C(=O)c1snc(C(N)=O)c1N)C(C(=O)NC1CCCCC1)c1ccc(F)cc1 (centres unmarked) | 10.7% |
| CCOc1ccc(NC(=O)c2c(NC(=O)CNCCN3CCOCC3)sc3c2CCC3)cc1 | -36.5% |
| O=C(OCC(=O)N1CCN(C(=O)COC(=O)c2ccc(O)cc2O)CC1)c1ccc(O)cc1O | 12.1% |
| CCC(C)[C@H](NC(=O)NCC1CCCO1)C(=O)OC (some centres unmarked) | 14.5% |
| Cc1[nH]c2ccc(OC(F)(F)F)cc2c1CCNCc1ccc(Cl)cc1.O=C(O)C(=O)O | 6.01% |
| CCCOc1ccc(/C(O)=C2\C(=O)C(=O)N(CCCOC)C23C(=O)N(C)c2ccccc23)cc1 (centres unmarked) | 15.8% |

| SMILES | hERG current change (%, negative = inhibition) at 1uM |
| --- | --- |
| CCn1c(SCCC(=O)Nc2ccccc2)nnc1-c1ccc(OC)cc1 | 7.77% |
| COc1ccc(NC2CCCN(C(=O)CCC3=NNC(=O)CC3)C2)cc1 (centres unmarked) | 8.47% |
| O=C(NCc1ccco1)c1sc2ccccc2c1Cl | 5.73% |
| Cc1nn(CCCC(=O)NCc2ccc(Cl)cc2)c(C)c1[N+](=O)[O-] | -3.11% |
| CC(C)(C)NCc1ccc(OCc2cccs2)cc1.Cl | 5.41% |
| C=CCN1C(=O)S/C(=C/c2ccc(Sc3nc4ccccc4[nH]3)o2)C1=O | 11.1% |
| O=C(Nc1ccc(C(=O)c2ccccc2)cc1)c1ccccc1 | 12% |
| CN(CC(=O)Nc1ccc(S(N)(=O)=O)cc1)C1CCCCC1 | 9.48% |
| Cc1cccc(C(=O)NN/C=C/C(=O)c2ccccc2)c1 | 6.9% |
| O=C(NC(=S)NCc1ccccc1)c1cccs1 | 14.5% |
| O=[N+]([O-])c1ccc(N2CCCCC2)nc1 | 7.55% |
| CCOC(=O)c1cccc(C2=CC(=O)C[C@H](c3ccc(OC)c(OC)c3)C2)c1 | 0.164% |
| Cl.O=C(NCCCNC(=O)c1cncc(O)c1)c1cncc(O)c1 | 17.1% |
| CC(C)NC(=O)Cc1ccc(Br)cc1 | 9.11% |
| COc1ccc(CN2CC[C@@H](N3CCOCC3)[C@H](O)C2)cc1F | 6.81% |
| COCC(=O)Nc1ccc(S(=O)(=O)Nc2nccs2)cc1 | 0.948% |
| COc1ccc(NC(=O)CCNC(=O)c2ccco2)cc1S(=O)(=O)N(C)C | 17.9% |
| O=C(CCCCCNS(=O)(=O)c1ccc(Br)cc1)NCCN1CCOCC1 | -7.77% |
| Cc1[nH]c2ccccc2c1/C=N/NC(=O)Cc1cccs1 | 10.9% |
| CCNc1ccc(C(=O)OCC(=O)NCCN2C(=O)CSC2=O)cc1[N+](=O)[O-] | -0.485% |
| Cc1ccc(S(=O)(=O)c2nnn3c2nc(N2CCOCC2)c2ccccc23)c(C)c1 | 4.67% |
| O=C1NC(c2cn(-c3ccccc3)nc2-c2cccs2)C(C(=O)c2cccnc2)C(O)(C(F)(F)F)N1 (centres unmarked) | 9.86% |
| Cc1ccccc1CS(=O)(=O)CCC(=O)N1CCN(c2ccc(N3CCOCC3)nn2)CC1 | 6.66% |

| SMILES | hERG current change (%, negative = inhibition) at 1uM |
| --- | --- |
| COc1ccc(Cl)cc1NC(=O)COC(=O)CNC(=O)C1CCCCC1 | 11.9% |
| CCCC(c1nnnn1CCc1ccccc1)N1CCC(C(N)=O)CC1 (centres unmarked) | 11.5% |
| COc1ccc(-n2c(=S)[nH]c3cc(C(=O)NCCCN4CCCC4=O)ccc3c2=O)cc1 | 13.9% |
| N#CSCC(=O)N1c2ccccc2CCc2ccccc21 | 1.98% |
| O=C(Nc1ccc(Cl)cc1)c1cc(-c2cccs2)on1 | 10.7% |
| CCOC(=O)c1ccc(Oc2nc(N(C)C)nc(N3CCOCC3)n2)cc1 | 20.8% |
| O=C(c1ccc(N2CCOCC2)c([N+](=O)[O-])c1)N1CCN(Cc2ccccc2)CC1 | -33.7% |
| CN1/C(=C/C=C(C#N)C#N)C=Cc2ccccc21 | 12.8% |
| O=[N+]([O-])c1ccc(/C=N/NC2=NS(=O)(=O)c3ccccc32)cc1 | 11.9% |
| CCOc1ccc2nc(NC(=O)CN3C(=O)NC4(CCCC4)C3=O)sc2c1 | -4.2% |
| CCOc1ccc(NC(=O)CCC(=O)NNC(=O)COc2ccc(C)cc2)cc1 | 6.23% |
| COc1ccccc1NS(=O)(=O)c1cc2c3c(c1)CC(=O)N3CCC2 | 6.48% |
| O=C(Nc1ncc(Cc2cccc(Cl)c2)s1)c1ccc([N+](=O)[O-])cc1 | 10.9% |
| CNC(=S)Nc1ccc(Cc2ccncc2)cc1 | 10.7% |
| COc1ccc(C(=O)O/N=C(\N)c2cccc(C)c2)cc1OC | 11.9% |
| Cc1ccc(-c2nc3cc(N)ccc3o2)cc1Br | 13.7% |
| Nc1c2c(nn1-c1ccc(F)cc1)CSC2 | 8.04% |
| CCCCC(=O)Nc1nc2ccc(C(=O)OC)cc2s1 | 15.9% |
| O=C(N/N=C/C=C/c1ccc(Br)cc1)C(O)c1ccccc1 (centres unmarked) | 9.32% |
| Cc1c(C(=O)NC2CCCCC2)oc2c1C(=O)CC(C)(C)C2 | 15.9% |
| O=c1oc2cc(O)ccc2c2oc3cc(O)ccc3c12 | 7.12% |
| O=C(COc1ccc(Br)cc1)N1CCC(c2ccccc2)C1 (centres unmarked) | 3.98% |
| CC(=O)Nc1ccccc1OP1(=O)COc2ccccc2OC1 | 7.81% |

| SMILES | hERG current change (%, negative = inhibition) at 1uM |
| --- | --- |
| O=C(O)CNC(=S)N(Cc1ccccc1Cl)C1CCCCC1 | 11.9% |
| Cc1ccc(Cl)cc1NC(=O)CCCN1C(=O)c2cccnc2C1=O | 1.06% |
| COc1cc(-c2nc3cnccc3n2C)cc(OC)c1OC | 2.44% |
| Cc1cc(C(=O)N2CCCc3ccccc32)no1 | -1.99% |
| COc1ccc(C2N(c3ccc(C)cc3)CCN2c2ccc(C)cc2)cc1O | 13.4% |
| CC(C)(C)c1ccc(S(=O)(=O)Nc2cccnc2)cc1 | -3.24% |
| Cc1cccc2sc(N(CCCN(C)C)C(=O)c3ccc(Cl)s3)nc12.Cl | 0.715% |
| COc1cc(C(=O)OCC(C)=O)cc(NC(=O)c2ccco2)c1OC | 10.2% |
| Cc1nc(N2CCN(C(=O)c3cnccn3)CC2)c2c3c(sc2n1)CC(C(C)(C)C)CC3 (centres unmarked) | 12.2% |
| O=C(NC1CCCCC1)c1ccc([N+](=O)[O-])o1 | 13.6% |
| CCn1c(COc2ccc(=O)n(-c3ccccc3)n2)nnc1SCc1ccccc1 | -1.03% |
| CSc1ccc(C(=O)C2CCCN(C(=O)c3ccc4c(c3)no[n+]4[O-])C2)cc1 (centres unmarked) | 2.57% |
| CCCc1c(C(=O)N/N=C/c2ccc(C)s2)nnn1-c1nonc1N | 16.5% |
| O=C(NC(=S)N1CCOCC1)c1cn(-c2ccccc2)nc1-c1ccc(F)cc1 | 9.97% |
| O=C(O)CSC(C(=O)Nc1ccc(C(F)(F)F)cc1)c1ccccc1 (centres unmarked) | 2.86% |
| O=c1[nH]c(N2CCc3ccccc3C2)nc2c1CCC2 | 7.51% |
| CCC(C(=O)OC(C)C(=O)Nc1ccc(Cl)cn1)c1ccccc1 (centres unmarked) | 8.79% |
| CC(=O)c1ccc(NC(=O)C2CCN(S(=O)(=O)c3cccnc3)CC2)cc1 | 9.88% |
| Cl.OC(COc1cccc2ccccc12)CN1CCN(c2ccccn2)CC1 (centres unmarked) | 4.49% |
| COCCN1C=C(C(=O)OC)C(c2ccccc2C(F)(F)F)C(C(=O)OC)=C1 | -2.17% |
